Results taken from PubChem BioAssay AID1508623 (National Center for Advancing Translational Sciences (NCATS), 2021).
Among all 48,000 compounds or so, about 450 (0.94%) were called active. Not shown: some 19% with an inconclusive outcome. Calls come from the whole dose curve; as a rule, active = well fitted inhibition curve with a large enough effect; inconclusive = small, poorly fitted or top-dose-only effect; inactive = no such curve, though single readings can be large or run the other way. The list shows a part of the results.

assay: Primary qHTS for Identification of Small Molecule Inhibitors of Huntingtin Promoter Activity; conditions: HEK293 HTT promoter firefly luciferase reporter (activity 0% = vehicle and -100% = no light), 24 h; series mostly up to 57.5 µM; activity change, negative = inhibition: at the top concentration; note: nearly all actives have a fitted effect of over 50% in size
How it was run: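 Firefly luciferase readout (Dual-Glo, 10 min RT) after 24 h, 37 °C compound exposure (final up to 57.5 uM) of HEK293 reporter cells cultured 24 h beforehand; PTC124 at 50 uM final as control inhibitor; activity scaled vehicle 0%, zero RLU -100%.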
Potency is the fitted concentration of half-maximal effect.

Row | Compound | activity change, negative = inhibition | Potency
1 | Cc1ccc(Sc2c(C)nn(-c3ccccc3)c2OC(=O)CC(C)C)cc1 | inactive: -10.4% | 
2 | CCOc1ccc(CC(=O)NCc2ccc3c(c2)CCN3C(=O)c2ccc(F)cc2)cc1OCC | inactive: -22.2% | 
3 | Cc1ccc(NC(=O)CN2C(=O)c3ccccc3Sc3ncccc32)c(C)c1 | inactive: -25.2% | 
4 | Cc1ccc(NC(=O)c2sc3nc[nH]c(=O)c3c2C)cc1C | inactive: 85% | 
5 | CC(=O)c1ccc(NC(=O)c2nn(C)c3c2COc2ccccc2-3)cc1 | inactive: 2.73% | 
6 | CCn1c(SCC(=O)Nc2cc(Cl)ccc2OC)nc2c([nH]c3ccccc32)c1=O | inactive: 1.85% | 
7 | CCOc1ccccc1NC(=O)N1CCC(N2CCN(Cc3ccccc3)C(=O)C2=O)CC1 | inactive: -11.3% | 
8 | CCOC(=O)c1c(NC(=O)c2cc(-c3ccc(Br)cc3)on2)sc(C)c1C | inactive: -2.26% | 
9 | CCc1cc2c(-c3ccccc3)cc(=O)oc2c2c1OCN(Cc1ccc(C)cc1)C2 | inactive: -13.5% | 
10 | O=c1c2ccccc2nc(-c2ccc(Cl)cc2)n1CCCCOc1ccc(F)cc1 | inactive: -8.78% | 
11 | COC(=O)c1ccc(NC(=O)CCOc2ccccc2)cc1 | inactive: 40.3% | 
12 | CC(COc1ccccc1)NN (configuration not stated) | inactive: -2.9% | 
13 | CCOc1ccc(CN2C(=O)c3ccccc3Sc3ccc(C(=O)NC4CCC(C)CC4)cc32)cc1 (configuration not stated) | inactive: -33% | 
14 | Cc1ccc(N(CC(=O)NCc2ccc(OC(C)C)cc2)S(=O)(=O)N(C)C)cc1 | inactive: -3.45% | 
15 | CCOC(=O)c1ccccc1NC(=O)CCc1c(C)nc2c(c1C)c(=O)n(C)c(=O)n2C | inactive: -2.84% | 
16 | COc1ccc(CNC(=O)CCS(=O)(=O)c2cc3c4c(c2)CCN4C(=O)CC3)cc1 | inactive: -12.2% | 
17 | COC(=O)c1ccc(NC(=O)c2cc3cc4ccc(OC)c(Cl)c4nc3s2)cc1 | inactive: 0% | 
18 | Cn1cc(C(=O)N2CCN(c3ccccc3)CC2)c(=O)c2cc(S(=O)(=O)N3CCCC3)ccc21 | inactive: -9.63% | 
19 | O=C(NC1CC(=O)N(c2ccc(F)cc2)C1)C(c1ccccc1)c1ccccc1 (configuration not stated) | inactive: -6.84% | 
20 | COc1ccc(-c2noc(CSc3nnc(-c4ccncc4)n3-c3ccc(OC)cc3)n2)cc1 | inactive: -29.9% | 
21 | COCCNC(=O)c1ccc(NC(=O)N2CCCCc3ccccc32)cc1 | inactive: -15.3% | 

Row | Compound | activity change, negative = inhibition | Potency
22 | CCOc1ccc(CNC(=O)CN2C(=O)CSc3c2c(C)nn3-c2ccccc2)cc1 | inactive: -4.38% | 
23 | O=C(Nc1c(O)c2ccccc2oc1=O)c1ccccc1Cl | inactive: 34.1% | 
24 | COc1ccc(NC(=O)C(=O)NCCc2csc3nc(-c4ccccc4C)nn23)cc1 | inactive: -6.71% | 
25 | CCCC(=O)Nc1nnc(S(=O)(=O)N(C)c2ccccc2)s1 | inactive: -12.3% | 
26 | COc1ccccc1CCNC(=O)C1CCN(c2nc3ccccc3nc2C(F)(F)F)CC1 | inactive: 6.6% | 
27 | COC(=O)c1ccccc1NC(=O)CSc1c2c(nc3ccc(Cl)cc13)CCCC2 | inactive: -14.9% | 
28 | COc1cccc(CNC(=O)C2CCCN(c3nnc(-n4c(C)ccc4C)s3)C2)c1 (configuration not stated) | inactive: -22.9% | 
29 | CC1=C[C@@H]2[C@@H]([C@@H](O)C[C@@]3(C)[C@H]2C[C@@H](C)[C@]3(O)C(=O)CO)[C@@]2(C)Cc3cnn(-c4ccccc4)c3C=C12 | inactive: -13.9% | 
30 | CCCN(CCC)C(=O)C(CCC(=O)O)NC(=O)c1ccccc1 (configuration not stated) | inactive: 2.89% | 
31 | O=C(NCC(c1cccnc1)N1CCN(Cc2ccccc2)CC1)C(=O)Nc1ccc(F)cc1 (configuration not stated) | inactive: 2.6% | 
32 | CC(C)c1ccc(NC(=O)CN(C)S(=O)(=O)c2ccc3c(c2)n(C)c(=O)c(=O)n3C)cc1 | inactive: -18.2% | 
33 | CCOC(=O)N1CCN(CCC(=O)Nc2cc(C)ccc2C)CC1 | inactive: -15.7% | 
34 | CCn1cnc2cc(NCc3ccc(N(C)C)cc3)ccc21 | inactive: 3.48% | 
35 | CCCCCCCCCCCCOS(=O)(=O)O | inactive: 11.5% | 
36 | CCn1cc2nc(SCC(=O)Nc3cccc(Cl)c3C)n(Cc3ccc(Cl)cc3)c(=O)c2n1 | inactive: -14.1% | 
37 | CCOc1ccc(C(=O)Nc2ccc3nc(SCC(=O)N4CCCC4)sc3c2)cc1 | inactive: 8.58% | 
38 | CCc1ccc(CNC(=O)c2cnc3sc(N4CCCCCC4)nn3c2=O)cc1 | inactive: 9.97% | 
39 | CCOC(=O)c1ccc(NC(=O)CN2C(=O)c3cccnc3Sc3ccccc32)cc1 | inactive: 21.6% | 
40 | Cc1ccccc1Cn1c(=O)n(CCCCCC(=O)NCc2ccc3c(c2)OCO3)c(=O)c2sccc21 | inactive: -5.34% | 
41 | O=C(Cn1ncc2c3ccccc3n(Cc3cccc(Cl)c3)c2c1=O)NCCC1=CCCCC1 | inactive: -1.44% | 
42 | CCN(CC)c1ccc(CNS(=O)(=O)c2cc3c(cc2C)NC(=O)CO3)cc1 | inactive: -17.5% | 

Row | Compound | activity change, negative = inhibition | Potency
43 | CCOc1ccc(NC(=O)Nc2c[nH]c(=O)[nH]c2=O)cc1 | inactive: -7.95% | 
44 | Cn1c(SCc2ccccc2Cl)nc(=O)c2c1NC(=O)CC2c1cc(F)ccc1F (configuration not stated) | inactive: -15.8% | 
45 | CCOC(=O)c1ccccc1NC(=O)Cn1c(=O)n(-c2ccc(CC)cc2)c(=O)c2c(C)c(C(=O)N(C)C)sc21 | inactive: -14.5% | 
46 | CCOc1ccccc1CNC(=O)c1ccc2c(c1)nc1n2CCC(C)C1 (configuration not stated) | inactive: 6.32% | 
47 | CC(=O)c1ccc(N2C(=O)Nc3ccccc3S2(=O)=O)cc1 | inactive: -9.26% | 
48 | CC(C)Sc1nc2sc3c(c2c(=O)n1-c1ccccc1)CCCC3 | inactive: -19.4% | 
49 | Cc1ccc(N2CC(NC(=O)c3ccccc3Br)CC2=O)cc1 (configuration not stated) | inactive: -22.6% | 
50 | Nc1ncc(S(=O)(=O)Nc2ccc(OC(F)(F)F)cc2)cn1 | inactive: -10.3% | 
51 | CCc1ccc(NS(=O)(=O)c2c(-c3ccccc3)csc2C(=O)OC)cc1 | inactive: -28.5% | 
52 | Cc1cc(NCc2ccc(Cl)cc2)n2cnnc2n1 |  | active: 25.1 µM
53 | COc1ccccc1N(CC(=O)Nc1cc(C)cc(C)c1)S(C)(=O)=O | inactive: -0.876% | 
54 | CN(Cc1ccco1)S(=O)(=O)c1nnc(NC(=O)c2ccccc2)s1 | inactive: 38.2% | 
55 | Cc1cccc(-c2noc(-c3ccc(NCc4cccnc4)c([N+](=O)[O-])c3)n2)c1 | inactive: 21.8% | 
56 | CCc1cccc(NC(=O)Cn2ccn3nc(-c4ccc(OC)c(OC)c4)cc3c2=O)c1 | inactive: -18.7% | 
57 | Cc1ccccc1NC(=O)Cn1cc(S(=O)(=O)N2CCCC2)c(S(=O)(=O)N2CCCC2)c1 | inactive: 13.8% [at 11.5 µM] | 
58 | CN(C)CC(C)(C)CNc1nn2c(-c3ccccc3)nnc2cc1C1CCC1 | inactive: -21.9% | 
59 | CC1=C(C(=O)Nc2ccccc2)C(c2ccccn2)n2nc(SCc3ccccc3Cl)nc2N1 (configuration not stated) | inactive: -3.06% | 
60 | CCOc1ccc(NC(=O)c2nnn(-c3ccc(F)c(Cl)c3)c2C)cc1 | inactive: -9.69% | 
61 | CCC(=O)Nc1cccc(OCc2cc(=O)n3cc(C)ccc3n2)c1 | inactive: 69.9% | 
62 | COC(=O)c1ccc(Oc2nc3c(c(=O)n(C)c(=O)n3C)n2Cc2ccc(Cl)c(Cl)c2)cc1 | inactive: -12.4% | 
